Inconclusive means that the source gave no clear call. Such entries were picked first, then a sample of the others. For some assays here: Where the call is inconclusive, the potency comes from a doubtful curve fit. The source made the active and inactive calls. Unless noted, calls follow the shape of the dose curve; as a rule, active = well fitted curve in the direction sought with a large enough effect in the repeat runs; inconclusive = weak or mixed curves; inactive = no such curve, though single readings can be large; an effect the other way counts as inactive or inconclusive.
Experiments:
[1] = qHTS assay for small molecule agonists of the p53 signaling pathway (AID 651631; calls by dose curve; also: nearly all actives have a fitted effect of over 15% in size); details: HCT-116 p53RE-bla reporter, beta-lactamase FRET ratio, 16 h; activation: at 73.3 µM (top of the series) unless noted
In short: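 Testing took place in human colorectal HCT-116 cells with stable p53RE-driven beta-lactamase. After 16 h of compound exposure at 37 °C, a FRET substrate was added and fluorescence recorded 2 h later.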

[2] = qHTS assay for small molecule agonists of the p53 signaling pathway - cell viability (AID 651633; calls by dose curve; also: nearly all actives have a fitted effect of over 30% in size); details: p53RE-bla HCT-116 viability, ATP luminescence, 16 h; series mostly up to 83.3 µM
In short: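 p53RE-bla cells, seeded at 4,000 per well and rested 5 h at 37 C/5% CO2, received compounds in DMSO for 16 h at 37 C. CellTiter-Glo was then added, and luminescence was read after 30 min at room temperature to gauge cytotoxicity.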

[3] = qHTS assay for small molecule disruptors of the mitochondrial membrane potential (AID 720635); details: HepG2 mitochondrial membrane potential, Mito-MPS dye ratio; series mostly up to 83.2 µM
In short: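 HepG2 cells (2,000/well) attached overnight at 37C, then took compound for 1 hr at 37C, 5% CO2. Mito-MPS dye was added for 30 min; fluorescence was read at 490/535 nm (monomers) and 540/590 nm (aggregates).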

[4] = qHTS assay to test for compound auto fluorescence at 460 nm (blue) in HEK293 cell free culture (AID 720681); details: cell-free medium, autofluorescence 405/460 nm (blue); series mostly up to 91.3 µM
In short: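 Test compounds were pinned into cell-free culture medium (DMEM with 10% FBS) and fluorescence was read directly at Ex/Em 405/460 nm. Signals were expressed as fluorescence equivalents of triamterene, with DMSO vehicle as control.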

[5] = qHTS assay to test for compound auto fluorescence at 460 nm (blue) in HepG2 cells (AID 720687); details: autofluorescence 405/460 nm, 1 h
In short: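 Cells (2,000/well in MEM with 10% FBS) attached overnight at 37 C, then were exposed to compound or DMSO for 1 hr at 37 C, 5% CO2. Fluorescence read at Ex/Em 405/460 nm, expressed as triamterene-equivalent signal.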

[6] = target: Glucocorticoid receptor (Homo sapiens) (UniProt P04150); test: qHTS assay to identify small molecule agonists of the glucocorticoid receptor (GR) signaling pathway (AID 720691; active = well fitted activation curve with a large enough effect in the signal ratio in the repeat runs, not every such curve was filed as active; inconclusive = weak or mixed curves, or effect the other way; inactive = no such curve, though single readings can be large or run the other way; the % refers to the signal ratio); details: GR-bla HeLa, beta-lactamase reporter ratio, 18 h; activation: at 62.4 µM (top of the series) unless noted
In short: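 Steps: seed GR-bla HeLa cells, incubate 4 h at 37 C/5% CO2; pin-transfer DMSO-dissolved compounds; incubate 18 h at 37 C; add LiveBLAzer B/G FRET substrate; after 2 h at room temperature, measure fluorescence.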

[7] = target: Glucocorticoid receptor (Homo sapiens) (UniProt P04150); test: qHTS assay to identify small molecule antagonists of the glucocorticoid receptor (GR) signaling pathway (AID 720692; active = well fitted inhibition curve with a large enough effect in the signal ratio in the repeat runs, not every such curve was filed as active; inconclusive = weak or mixed curves, or effect the other way; inactive = no such curve, though single readings can be large or run the other way; the % refers to the signal ratio); details: GR-bla HeLa, beta-lactamase FRET ratio, dexamethasone-stimulated, 18 h; series mostly up to 58.5 µM
In short: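 Antagonism was scored as loss of dexamethasone-driven (5 nM final) reporter signal in HeLa cells bearing a glucocorticoid response element–beta-lactamase construct, after 18 h compound exposure at 37 C and 2 h FRET substrate loading.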

[8] = qHTS assay to identify small molecule antagonists of the glucocorticoid receptor (GR) signaling pathway - cell viability counter screen (AID 720693); details: GR-bla HeLa viability, CellTiter-Glo luminescence, 18 h, with 5 nM dexamethasone present; series mostly up to 58.5 µM; also: nearly all actives have a fitted effect of over 55% in size
[9] = qHTS assay for small molecules that induce genotoxicity in human embryonic kidney cells expressing luciferase-tagged ATAD5 - cell viability (AID 651634; calls by dose curve; also: nearly all actives have a fitted effect of over 25% in size); details: HEK293T ATAD5-luc cells viability, CellTiter-Fluor, 15.5 h; series mostly up to 83.3 µM
In short: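 Cells (HEK293T, luciferase-tagged ATAD5) are seeded at 2,000 per well, dosed with compound or DMSO vehicle, and incubated 15.5 hr at 37C and 5% CO2. CellTiter-Fluor is added for 30 min before fluorescence is measured.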

[10] = qHTS assay for small molecule disruptors of the mitochondrial membrane potential - cell viability (AID 720634; calls by dose curve; also: nearly all actives have a fitted effect of over 20% in size); details: HepG2 viability, ATP luminescence (CellTiter-Glo), 1 h; series mostly up to 83.2 µM
In short: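 Cytotoxicity was measured by ATP quantitation in HepG2 wells that had first been treated with compound for 1 hr and stained with m-MPI dye; CellTiter-Glo incubation was 30 min at room temperature.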
Potency is read from the fitted curve at half-maximal effect; tags tell the direction and shape of the fitted curve or compound fluorescence and quenching.

Sequence of UniProt P04150 (P04150 whole entry, looked up): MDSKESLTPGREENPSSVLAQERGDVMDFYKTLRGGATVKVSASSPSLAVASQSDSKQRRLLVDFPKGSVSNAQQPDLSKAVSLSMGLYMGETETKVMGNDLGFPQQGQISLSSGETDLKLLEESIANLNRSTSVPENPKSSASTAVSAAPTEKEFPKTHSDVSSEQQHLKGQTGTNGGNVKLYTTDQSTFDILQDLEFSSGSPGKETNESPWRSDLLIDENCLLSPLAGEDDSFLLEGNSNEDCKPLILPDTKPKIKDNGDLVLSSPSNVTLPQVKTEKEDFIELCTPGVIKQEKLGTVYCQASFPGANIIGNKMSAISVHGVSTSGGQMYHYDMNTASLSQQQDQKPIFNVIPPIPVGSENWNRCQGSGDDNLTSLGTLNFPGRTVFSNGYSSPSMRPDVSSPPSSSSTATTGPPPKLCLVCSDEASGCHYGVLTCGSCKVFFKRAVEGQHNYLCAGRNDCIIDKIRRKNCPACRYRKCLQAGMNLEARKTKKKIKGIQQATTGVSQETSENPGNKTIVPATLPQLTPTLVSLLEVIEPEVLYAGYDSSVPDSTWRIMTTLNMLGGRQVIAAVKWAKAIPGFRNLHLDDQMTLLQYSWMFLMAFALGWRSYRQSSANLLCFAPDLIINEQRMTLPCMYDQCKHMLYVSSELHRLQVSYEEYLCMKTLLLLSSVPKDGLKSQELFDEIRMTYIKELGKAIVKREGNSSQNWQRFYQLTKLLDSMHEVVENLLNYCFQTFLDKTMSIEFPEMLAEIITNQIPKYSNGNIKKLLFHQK

Structure (SMILES) | Potency [1] | Potency [2] | Potency [3] | Potency [4] | Potency [5] | Potency [6] | Potency [7] | Potency [8] | Potency [9] | Potency [10]
CC(C)c1cccc(C(C)C)c1N1C(=O)c2ccc(O)cc2C1=O | active: 1.54 µM | inconclusive: 61.1 µM [cytotoxic, single point] | active: 1.22 µM | active: 35.5 µM | active: 35.5 µM [fluorescent] | inconclusive: 49 µM [falling, single point] | active: 38.9 µM | active: 43.6 µM |  | 
O=c1[nH]sc2ccccc12 | inconclusive: 68.6 µM [activator] | inconclusive: 68.6 µM [cytotoxic, single point] | active: 27.3 µM |  |  | inconclusive: 61.6 µM [falling, single point] | inconclusive: 61.6 µM [inhibitor, single point] | inconclusive: 61.6 µM [cytotoxic, single point] |  | 
CCCCCCCCCCCCCCCCCC[N+](C)(C)C | inconclusive: 54.6 µM [cytotoxic, partial curve] |  | active: 48.7 µM |  |  | inconclusive: 31 µM [cytotoxic, partial curve] | inconclusive: 39 µM [cytotoxic, partial curve] | active: 24.6 µM | active: 61.3 µM | inconclusive: 68.8 µM [cytotoxic, single point]
Cc1cc(Br)ccc1NC(=O)CCl | active: 8.63 µM | active: 43.3 µM | inconclusive: 48.6 µM [activator] |  |  |  | inconclusive: 54.9 µM [cytotoxic] | active: 43.6 µM |  | 

Reference: PubChem BioAssay (Tox21)
